Source: the supplement of paper PMC4967469

Tests used:
Assay in all cases: Viability of human cancer cell lines after 72 h of drug (GDSC screen)
[1] = compound: CCOc1nc(NC(=O)Cc2cc(OC)ccc2OC)cc(N)c1C#N [JNK Inhibitor VIII]; conditions: top dose 10 µM; top dose inferred
Experimental: (§1)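 Human cancer cell lines in 384-well plates, medium with 10% serum, drug for 72 h over a 256-fold dose range (nine 2-fold or five 4-fold steps up to the top dose). Adherent lines were fixed and stained with the nucleic acid dye Syto60, suspension lines read with resazurin; signal relative to control wells, capped at 0 and 100%. One two-parameter sigmoid per drug and line, fitted in a mixed model over all curves with the slope shared within a line.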

[2] = compound: CC1(C)CNc2cc(NC(=O)c3cccnc3NCc3ccncc3)ccc21 [AMG-706]; conditions: top dose 2 µM; top dose inferred
Experimental: as §1

[3] = compound: c1ccc2c(CCNc3ccc(Nc4ccncc4)cc3)c[nH]c2c1 [JNJ-26854165]; conditions: top dose 10 µM
Experimental: as §1

[4] = compound: CN1CCN(c2ccc([N+](=O)[O-])c3no[n+]([O-])c23)CC1 [NSC-207895]; conditions: top dose 20 µM; top dose inferred
Experimental: as §1

[5] = compound: Cc1ccc(C(=O)N(CCCN)[C@@H](c2nc3cc(Cl)ccc3c(=O)n2Cc2ccccc2)C(C)C)cc1 [SB-715992]; conditions: top dose 0.128 µM; top dose inferred
Experimental: as §1

[6] = compound: O=C(/C=C/c1cccc(S(=O)(=O)Nc2ccccc2)c1)NO [Belinostat]; conditions: top dose 20 µM; top dose inferred
Experimental: as §1

[7] = compound: COCC[n+]1c2c(n(Cc3cnccn3)c1C)C(=O)c1ccccc1C2=O [YM155]; conditions: top dose 5.12 µM
Experimental: as §1

[8] = compound: Cc1sc2c(c1C)C(c1ccc(Cl)cc1)=N[C@@H](CC(=O)OC(C)(C)C)c1nnc(C)n1-2 [JQ1]
Experimental: as §1

[9] = compound: COC(=O)[C@H](CCSC)NC(=O)c1ccc(NC[C@@H](N)CS)cc1-c1ccccc1 [FTI-277]; conditions: top dose 1.024 µM; top dose inferred
Experimental: as §1

[10] = compound: C[C@]1(O)C[C@@H](c2nc(-c3ccc4ccc(-c5ccccc5)nc4c3)c3c(N)nccn32)C1 [OSI-906]; conditions: top dose 2.56 µM; top dose inferred
Experimental: as §1

[11] = top dose 1 µM, screen: GDSC drug entry 1218, top dose inferred
[12] = top dose 2.56 µM, screen: GDSC drug entry 163

Cell Line | AUC [1] | IC50 [1] [nM] | AUC [2] | IC50 [2] [nM] | AUC [3] | IC50 [3] [nM] | AUC [4] | IC50 [4] [nM] | AUC [5] | IC50 [5] [nM] | AUC [6] | IC50 [6] [nM] | AUC [7] | IC50 [7] [nM] | AUC [8, 11] | IC50 [8, 11] [nM] | AUC [8, 12] | IC50 [8, 12] [nM] | AUC [9] | IC50 [9] [nM] | AUC [10] | IC50 [10] [nM]
A549 (lung adenocarcinoma, adherent) | 0.979 | > 10000 | 0.976 | > 2000 | 0.959 | > 10000 |  |  |  |  |  |  |  |  |  |  |  |  |  |  |  | 
CHP-134 (neuroblastoma, suspension) | 0.948 | > 10000 | 0.924 | > 2000 |  |  | 0.824 | 16500 | 0.607 | 17 | 0.293 | 274 | 0.061 | < 20 |  |  |  |  |  |  |  | 
CRO-AP2 (B-cell lymphoma, suspension) | 0.99 | > 10000 | 0.989 | > 2000 | 0.83 | 5160 |  |  |  |  |  |  |  |  | 0.989 | > 1000 |  |  |  |  |  | 
DIFI (large intestine, adherent) | 0.987 | > 10000 | 0.987 | > 2000 | 0.94 | > 10000 |  |  |  |  |  |  |  |  | 0.986 | > 1000 |  |  |  |  |  | 
EMC-BAC-2 (lung adenocarcinoma, adherent) | 0.914 | > 10000 | 0.914 | > 2000 | 0.908 | > 10000 | 0.784 | 10200 | 0.742 | 45.5 | 0.41 | 674 | 0.037 | < 20 | 0.959 | > 1000 |  |  |  |  |  | 
HCC-366 (non-small cell lung carcinoma, adherent) | 0.988 | > 10000 | 0.988 | > 2000 | 0.913 | > 10000 |  |  |  |  |  |  |  |  | 0.979 | > 1000 |  |  |  |  |  | 
Jurkat (T-cell leukaemia, suspension) | 0.988 | > 10000 | 0.988 | > 2000 | 0.977 | > 10000 |  |  |  |  |  |  |  |  |  |  |  |  |  |  |  | 
KATOIII (stomach, semi-adherent) | 0.987 | > 10000 | 0.877 | 1720 | 0.94 | > 10000 |  |  |  |  |  |  |  |  | 0.987 | > 1000 |  |  |  |  |  | 
KNS-62 (lung squamous cell carcinoma, adherent) | 0.953 | > 10000 | 0.908 | > 2000 | 0.871 | > 10000 |  |  |  |  |  |  |  |  | 0.967 | > 1000 |  |  |  |  |  | 
LN-405 (glioma, adherent) | 0.972 | > 10000 |  |  |  |  | 0.984 | > 20000 | 0.918 | > 128 | 0.546 | 1730 | 0.208 | 34 | 0.967 | > 1000 | 0.856 | > 2560 | 0.983 | > 1020 | 0.984 | > 2560
LU-99A (large cell lung carcinoma, adherent) |  |  |  |  | 0.893 | > 10000 | 0.974 | > 20000 | 0.967 | > 128 | 0.627 | 2780 | 0.18 | 35.4 | 0.986 | > 1000 | 0.591 | 283 | 0.974 | > 1020 | 0.806 | 1280
MEL-HO (melanoma, adherent) | 0.986 | > 10000 | 0.979 | > 2000 | 0.84 | 7040 |  |  |  |  |  |  |  |  | 0.985 | > 1000 |  |  |  |  |  | 
ML-1 (thyroid, adherent) |  |  |  |  | 0.834 | 8140 | 0.805 | 12200 | 0.955 | > 128 | 0.321 | 359 | 0.062 | < 20 | 0.98 | > 1000 | 0.708 | 688 | 0.968 | > 1020 | 0.927 | > 2560
NCI-H196 (small cell lung carcinoma, adherent) |  |  |  |  | 0.949 | > 10000 | 0.988 | > 20000 | 0.988 | > 128 | 0.263 | 254 | 0.375 | 143 | 0.987 | > 1000 | 0.825 | 1640 | 0.984 | > 1020 | 0.988 | > 2560
NCI-H441 (lung adenocarcinoma, adherent) |  |  |  |  | 0.896 | > 10000 | 0.979 | > 20000 | 0.974 | > 128 | 0.761 | 10000 | 0.092 | < 20 | 0.971 | > 1000 | 0.807 | 2020 | 0.968 | > 1020 | 0.771 | 1400
NCI-H1573 (lung adenocarcinoma, adherent) |  |  |  |  | 0.951 | > 10000 | 0.975 | > 20000 | 0.954 | > 128 | 0.564 | 1850 | 0.49 | 301 | 0.988 | > 1000 | 0.988 | > 2560 | 0.99 | > 1020 | 0.99 | > 2560
NCI-H1734 (lung adenocarcinoma, adherent) |  |  |  |  | 0.849 | 8650 | 0.978 | > 20000 | 0.927 | > 128 | 0.439 | 836 | 0.073 | < 20 |  |  | 0.861 | 2550 | 0.956 | > 1020 | 0.893 | > 2560
NCI-H1793 (lung adenocarcinoma, adherent) |  |  |  |  | 0.928 | > 10000 | 0.969 | > 20000 | 0.95 | > 128 | 0.781 | 12100 | 0.079 | < 20 | 0.965 | > 1000 | 0.92 | > 2560 | 0.975 | > 1020 | 0.981 | > 2560
NCI-H1915 (large cell lung carcinoma, adherent) |  |  |  |  | 0.883 | > 10000 | 0.983 | > 20000 | 0.721 | 34.3 | 0.309 | 360 | 0.063 | < 20 | 0.986 | > 1000 | 0.871 | 2480 | 0.925 | > 1020 | 0.98 | > 2560

A lower IC50 marks a more sensitive line; a fit beyond the top or the lowest dose is shown as a bound at that dose. AUC is the area under the same curve over the 256-fold range up to the top dose, as a fraction: 1 means no effect, lower means more sensitive. For some assays here: Where the top dose is marked as inferred, it comes from the curve model; the source does not state it. For some assays here: An entry number marks a drug with two screens in the source, which often give different values.
